This is an account of results in publication PMC4336329 (PLoS ONE, 2015).

In all, about 310,000 compounds went through this assay and about 2,200 (0.71%) showed an effect of 50% or more. Effects have a minus sign here. This is one part of the list.

In the assay the target is human ether-à-go-go-related gene (hERG) potassium channel (human, UniProt Q12809). Put plainly: primary screen, population patch clamp on CHO cells stably expressing hERG.
Sequence of human ether-à-go-go-related gene (hERG) potassium channel (Q12809 whole entry, looked up): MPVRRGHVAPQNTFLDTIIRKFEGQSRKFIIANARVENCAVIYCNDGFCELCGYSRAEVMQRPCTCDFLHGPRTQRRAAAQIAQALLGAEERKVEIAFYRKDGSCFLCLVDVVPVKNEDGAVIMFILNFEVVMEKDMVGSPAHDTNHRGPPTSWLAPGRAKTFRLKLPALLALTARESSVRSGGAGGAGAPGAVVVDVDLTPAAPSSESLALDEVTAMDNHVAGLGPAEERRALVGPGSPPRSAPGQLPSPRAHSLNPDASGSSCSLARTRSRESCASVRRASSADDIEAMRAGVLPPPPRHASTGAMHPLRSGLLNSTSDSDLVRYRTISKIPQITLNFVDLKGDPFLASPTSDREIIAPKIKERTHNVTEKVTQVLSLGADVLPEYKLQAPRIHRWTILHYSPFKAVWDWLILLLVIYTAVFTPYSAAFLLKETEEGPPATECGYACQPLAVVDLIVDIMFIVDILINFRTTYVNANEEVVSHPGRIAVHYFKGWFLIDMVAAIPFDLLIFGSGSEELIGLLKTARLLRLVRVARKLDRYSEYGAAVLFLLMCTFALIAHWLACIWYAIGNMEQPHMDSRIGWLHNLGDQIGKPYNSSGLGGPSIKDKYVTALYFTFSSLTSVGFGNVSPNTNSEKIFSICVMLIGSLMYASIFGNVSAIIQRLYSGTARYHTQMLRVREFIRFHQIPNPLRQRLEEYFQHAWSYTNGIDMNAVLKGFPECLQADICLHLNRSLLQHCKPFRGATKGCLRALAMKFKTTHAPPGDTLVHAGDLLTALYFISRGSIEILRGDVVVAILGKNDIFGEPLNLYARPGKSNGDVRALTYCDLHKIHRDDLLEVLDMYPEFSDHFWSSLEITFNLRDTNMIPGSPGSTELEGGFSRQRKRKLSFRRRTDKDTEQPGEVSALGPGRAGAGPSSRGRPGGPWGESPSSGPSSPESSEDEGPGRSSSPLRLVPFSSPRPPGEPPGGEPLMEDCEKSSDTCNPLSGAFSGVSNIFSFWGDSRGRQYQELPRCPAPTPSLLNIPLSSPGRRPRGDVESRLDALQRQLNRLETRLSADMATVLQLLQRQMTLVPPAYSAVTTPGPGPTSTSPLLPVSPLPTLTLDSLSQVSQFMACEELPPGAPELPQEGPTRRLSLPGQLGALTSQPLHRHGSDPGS
For `O=C(Nc1cc(Cl)ccc1O)c1cc(-c2ccco2)on1`, the “hERG current change (%, negative = inhibition) at 1uM” value came to 15.1%.
The same measure for `COc1ccc(C(=O)NC2CC2)cc1OC1CCN(Cc2ccccc2F)CC1`: -64.5%.
Consider `C/C(=N/NS(=O)(=O)c1cc(C)ccc1C)c1c[nH]c2ccccc12`, for which the “hERG current change (%, negative = inhibition) at 1uM” value is on record as 4.19%.
The same measure for `CCc1cc(C(=O)N2CCN(c3ccccn3)CC2)sc1C`: 7.26%.
The same measure for `CC1CCC(CN2CCN=C2Nc2ccccc2)CC1` (stereo not shown): 7.55%; for `CCOC(=O)c1nnc(-c2cccs2)nc1Oc1ccc(Cl)cc1`: 11%; for `COCCN(CCOC)S(=O)(=O)c1ccc(C(=O)Nc2nnc(C)o2)cc1`: 9.36%.
For the molecule `CCCCC(CCC(=O)Nc1ccccc1C(=O)OCC)C(=O)O` (stereo not shown), the “hERG current change (%, negative = inhibition) at 1uM” value is on record as 3.35%.
For the molecule `COc1ccccc1C(=O)N1CCN(C(=O)c2ccncc2)CC1`, the “hERG current change (%, negative = inhibition) at 1uM” value was 0.151%.
As for `COc1cccc2oc3cc(C#Cc4ccccn4)ccc3c(=O)c12`, the figure is 11.1%.
As for `O=C(Nc1ccc2c(c1)OCO2)c1cc(-c2ccc(O)cc2)on1`, the figure is 18.4%; as for `Cc1ccc(C)c(N=Cc2c(O)c3ccccc3oc2=O)c1`, 15.5%.
For `CN1CCN(C(=O)c2ccc3c(Cl)c4c(nc3c2)CCCC4)CC1`, the “hERG current change (%, negative = inhibition) at 1uM” value is recorded as -0.735%.
As for `Cc1cccc(/C=N/NC(=O)c2c(-c3ccccc3)noc2C)c1O`, the “hERG current change (%, negative = inhibition) at 1uM” value was determined as 6.85%.
As for `Cc1cccc(NC(=O)CSc2c3c(nc4ccccc24)CCC3)n1`, the figure is -1.85%; as for `CCOC(=O)C1CCN(CC(=O)Nc2cc(S(=O)(=O)N3CCOCC3)ccc2C)CC1.O=C(O)C(=O)O`, 3.87%.
The same measure for `C/C(=N/NC(=O)c1ccc(NC(=O)c2ccc(F)cc2)cc1)c1ccccc1`: 3.01%.
As for `O=c1/c(=C/c2ccco2)sc2nc(-c3ccccc3Br)nn12`, the “hERG current change (%, negative = inhibition) at 1uM” value worked out at 10.4%.
The same measure for `O=C(c1ccco1)N1CCN(S(=O)(=O)c2cccc([N+](=O)[O-])c2)CC1`: 0.797%.
As for `CC1CCN(C(=O)c2[nH]cnc2C(=O)NCCCCCNC(=O)OC(C)(C)C)CC1`, the figure is 14.7%; as for `O=C(Nc1cccnc1)c1coc(=O)c2ccccc12`, 9.35%; as for `CCN(Cc1ccc2c(c1)OCCO2)S(=O)(=O)c1ccc(NC(C)=O)cc1`, 1.36%.
The same measure for `Cc1ccc(S(=O)(=O)CCc2nnc(NC(=O)c3ccccn3)s2)cc1`: 7.42%.
`Cc1nc(NC(=O)c2ccccc2)sc1C`: the “hERG current change (%, negative = inhibition) at 1uM” value is 16.6%.
As for `CCOc1ccccc1C(=O)NC(C(=O)NCc1ccccc1OC)C(C)C` (stereo not shown), the figure is -4.79%.
In the case of `Cc1ccc(C(=O)N[C@H](C(=O)N2CCN(c3ccccc3F)CC2)C(C)C)cc1`, the “hERG current change (%, negative = inhibition) at 1uM” value was -1.2%.
As for `CCOc1cc(N2CCOCC2)c(OCC)cc1NC(=O)C(C)(C)C`, the figure is 11.3%; as for `CC1=Nc2ccccc2N=C(NC(=O)c2ccccc2)C1c1ccc(Cl)cc1` (stereo not shown), 19.7%; as for `CCCC(C(=O)Nc1ccncc1)c1ccccc1` (stereo not shown), 17.3%.
The same measure for `NC(=O)c1cc(S(=O)(=O)Nc2ccc(OC(F)(F)F)cc2)cs1`: 7.6%; for `Cc1c(CC(=O)NCCCCCC(=O)O)c(=O)oc2cc3c(cc12)CCC(C)(C)O3`: 11.6%.
As for `O=C(Nc1ccc2oc(-c3ccccc3)nc2c1)c1cccnc1`, the “hERG current change (%, negative = inhibition) at 1uM” value worked out at 5.6%.
Regarding `Cc1ccc(S(=O)(=O)NCCC(=O)OCC(=O)Nc2cccc(Cl)c2)cc1`, the “hERG current change (%, negative = inhibition) at 1uM” value was -5.44%.
Turning to `Cl.Fc1ccc(COc2ccccc2CNCc2ccncc2)cc1`, the “hERG current change (%, negative = inhibition) at 1uM” value is given as 2.16%.
The same measure for `Cc1cc(C(=O)C[N+]23CCN(CC2)CC3)c(C)n1-c1ccc(Br)cc1.[Cl-]`: 9.53%; for `Cc1ccc2c(c1)[nH]c1c(=O)n(Cc3ccco3)cnc12`: 9.96%; for `CC(C)(C)CN1C(N)=NC[C@@H]1c1ccccc1`: 20.2%.
As for `COc1ccc(S(=O)(=O)Nc2ccncc2)c(C)c1C`, the figure is 15.6%; as for `CCCCCCN=C(CC)c1c(O)n(CCCC)c(=O)[nH]c1=O`, -9.05%.
For the molecule `CCN(CC)CCCNC(=O)c1c(O)c2c([nH]c1=O)CCCC2`, the “hERG current change (%, negative = inhibition) at 1uM” value stood at 2.87%.
The same measure for `CN(C)CCNc1nc2c(c(=O)[nH]c(=O)n2C)n1CCCc1ccccc1`: -4.68%; for `COc1cc(CCC(=O)OCC(=O)Nc2c(Cl)cccc2Cl)cc(OC)c1OC`: 11.4%.
The same measure for `O=C(c1ccc(Cl)c(S(=O)(=O)N2CCOCC2)c1)N1CCOCC1`: 4.65%; for `S=c1[nH]nc(C2CCCCC2)n1/N=C/c1cccc(Cl)c1Cl`: -5.17%.
Take `O=C(CCn1c(=O)[nH]c2ccsc2c1=O)NCc1ccc(F)cc1`: the “hERG current change (%, negative = inhibition) at 1uM” value was 5.81%.
Regarding `O=C(NP(=O)(N1CCOCC1)N1CCOCC1)C1=C(N2CCOCC2)/C(=C\c2ccccc2)CC1`, the “hERG current change (%, negative = inhibition) at 1uM” value was determined as 16.5%.
The same measure for `COc1ccc(C)cc1NC(=O)C(=O)c1cn(CC(=O)N2CCCC2)c2ccccc12`: 4.64%.
As for `COc1ccccc1NC(=O)Nc1ccc2c(c1)nnn2C`, the figure is 6.64%; as for `CSCC(=O)N1CCCC(N2CCN(c3ccc(F)cc3)CC2)C1` (stereo not shown), 0.918%.
As to `COC(=O)c1ccccc1NC(=O)NCc1ccccc1`, the “hERG current change (%, negative = inhibition) at 1uM” value is 2.28%.
`O=[N+]([O-])c1ccccc1N/N=C1\CC2CC=CC12` (stereo not shown): the “hERG current change (%, negative = inhibition) at 1uM” value came out at 11.2%.
The same measure for `Cc1csc(NC(=O)CSc2nnc(C)n2Cc2ccco2)n1`: 7.95%; for `CCCS(=O)(=O)NCc1ccc2c(c1)cc(C)n2C`: 2.92%; for `CC(C)C(OC(=O)c1cccs1)C(=O)NCc1ccco1` (stereo not shown): 12.2%.
As for `O=C(NCCCn1ccnc1)c1cc(-c2cccs2)on1`, the figure is -3.58%; as for `COc1ccc(CCNc2oc(COc3ccc(F)cc3)nc2C#N)cc1`, 19.2%; as for `Cc1ccc(NC(=O)Cc2ccc(F)cc2)cc1`, 10.5%.
As for `O=C(CN1CCN(c2ccc(F)cc2)CC1)Nc1ccc2c(c1)OCCO2`, the figure is 14.1%.
